Whole data set: some 33,000 sequences, median “E-score (-0.5 to 0.5)” near -0.036, cut for the highest 2% near 0.37. Some of the results follow.
Biological target: T1, Yer064c (UniProt P40041)
T1 sequence: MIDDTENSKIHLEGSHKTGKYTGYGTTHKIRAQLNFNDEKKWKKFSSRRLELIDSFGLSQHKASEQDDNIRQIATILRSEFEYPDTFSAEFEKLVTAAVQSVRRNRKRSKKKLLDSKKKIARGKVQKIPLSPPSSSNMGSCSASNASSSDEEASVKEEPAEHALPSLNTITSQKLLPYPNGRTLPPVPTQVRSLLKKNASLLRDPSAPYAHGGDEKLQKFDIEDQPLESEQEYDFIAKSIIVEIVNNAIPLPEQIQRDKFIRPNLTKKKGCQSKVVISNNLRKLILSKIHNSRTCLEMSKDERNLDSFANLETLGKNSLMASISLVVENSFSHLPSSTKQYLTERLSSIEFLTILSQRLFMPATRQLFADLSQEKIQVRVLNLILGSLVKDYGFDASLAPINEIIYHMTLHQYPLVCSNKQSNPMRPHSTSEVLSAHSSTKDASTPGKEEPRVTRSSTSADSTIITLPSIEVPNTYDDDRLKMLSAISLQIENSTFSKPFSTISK
Assay: PBM E-score (8-mer binding enrichment) (E-score (-0.5 to 0.5)); higher = stronger / more preferred TF binding; most listed sequences are background and not binding sites
Conditions: protein concentration: 200 nM; construct: GST-full length
Method in brief: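 Yeast transcription factors, full-length or as DNA-binding domains, were expressed with a GST tag using PURExpress in vitro transcription/translation. At about 100-200 nM they were applied to universal all-10-mer Agilent arrays, double-stranded by primer extension on fresh or once-stripped slides. Fluorescent anti-GST detected bound protein, and masliner normalised the scans. E-scores for ungapped eight-base words, pooled with reverse complements, came from the Universal PBM Analysis Suite.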

| Sequence | PBM E-score |
| --- | --- |
| GTAATCGA | 0.0697 |
| CAATGACG | -0.047 |
| TATTATCA | 0.0515 |
| AGGCCTTA | -0.113 |
| ATGTAAGC | -0.0792 |
| TCTAATCA | 0.386 |
| CATGCTTA | 0.0408 |
| CTACGTAG | 0.104 |
| AAGCGTCT | -0.373 |
| GGATTTTA | -0.0301 |
| CACCGTAC | -0.0293 |
| AAATCCTG | 0.05 |
| CGGAACTC | 0.0164 |
| ACTATCAA | 0.216 |
| CCAGCCGA | -0.133 |
| ACAAGCGG | -0.238 |
| ATGAGAAC | -0.0445 |
| ATCATGAC | 0.369 |
| AATAGACC | -0.19 |
| ACCGTAAT | -0.0463 |
| GATGTCAC | -0.0347 |
| AAGATCTT | -0.036 |

| Sequence | PBM E-score |
| --- | --- |
| CTTTTTAA | 0.0374 |
| CGGCGTCA | -0.314 |
| CTCTGCAG | -0.00801 |
| CAACTATG | -0.0265 |
| CGATTTCA | 0.183 |
| CAGGACTA | 0.262 |
| CCCTTGAC | 0.0569 |
| CTCGTTTA | 0.079 |
| CGTTTCCA | -0.081 |
| CCGATCAC | 0.112 |
| CTAGGGCC | -0.0622 |
| TAAACCGA | 0.136 |
| CGTGGGGA | -0.0579 |
| GTTCGTCA | -0.18 |
| AGCCCTGC | -0.204 |
| AGGGCCAT | -0.302 |
| AACGGCTT | -0.309 |
| CTCATGTC | 0.253 |
| GCAGGTGA | 0.113 |
| AGCCATGG | 0.268 |
| AGCCTTCC | -0.182 |
| ATCGGTTC | -0.0981 |

| Sequence | PBM E-score |
| --- | --- |
| TACGGCTA | -0.145 |
| CAGATGAG | 0.325 |
| GGGGCCAA | -0.182 |
| AGAGCTGG | -0.0503 |
| GGAGCCCA | -0.126 |
| GACTGTAA | 0.226 |
| GCCTTTGA | -0.0905 |
| ACTTAGGA | 0.21 |
| GTAGTTAA | 0.173 |
| CGGGCCCG | -0.108 |
| CCGCTAAG | -0.0577 |
| AGCTCCGA | -0.0181 |
| CAGGCCAC | -0.151 |
| AGTAGATG | 0.0194 |
| CAGACGCG | -0.179 |
| CTATTCAA | 0.05 |
| AGGGGTAC | -0.142 |
| GTGACACA | 0.107 |
| GGGAGTAA | 0.00383 |
| ACCGGGAA | 0.00229 |
| AGCACGCG | -0.0592 |
| AGCTTGGC | -0.115 |

| Sequence | PBM E-score |
| --- | --- |
| ACTCATTG | 0.382 |
| GTAGCCCA | -0.0617 |
| GCAGGGGA | -0.21 |
| AGCCTGGC | -0.219 |
| CGGAACGC | -0.0754 |
| CCGGAGTC | 0.373 |
| CGGACCTC | -0.265 |
| GCTATAGA | -0.00628 |
| CGAGACTA | 0.37 |
| CGCTTGGC | -0.124 |
| GATGCGGC | -0.227 |
| AGTTTAAC | -0.0695 |
| AGTAGACC | 0.00168 |
| CTGCCTGC | -0.278 |
| CACCCCTA | -0.109 |
| CACCGCCG | 0.0102 |
| CAATATGA | 0.215 |
| ATACCCTA | -0.00778 |
| AATCTCTA | 0.0427 |
| CGTTGCAA | 0.0224 |
| GCTAAGAC | 0.137 |
| CAAGCTCG | -0.167 |

| Sequence | PBM E-score |
| --- | --- |
| ATAAACGC | -0.233 |
| CCGTTGGC | -0.245 |
| CTGTATCC | -0.163 |
| GTGTTTTA | -0.00792 |
| CCTCCGGA | -0.0269 |
| AACGAGGT | 0.0692 |
| ATTAACCA | 0.24 |
| CCGAGCAG | 0.103 |
| AACACCAG | -0.153 |
| TTTCAAAA | 0.0533 |
| AACTGGTA | -0.259 |
| TAGGGGGA | -0.199 |
| AGTACACT | 0.144 |
| GTTCCGAA | -0.0766 |
| TCAGCAGA | 0.214 |
| CTATATTC | 0.0461 |
| ACGAGGCT | 0.0286 |
| CTAATGGA | 0.0291 |
| CCCCGATC | -0.242 |
| GGGCATGA | 0.217 |
| GTCCCTCA | -0.0573 |
